Data reported in PubChem BioAssay AID504832 (National Center for Advancing Translational Sciences (NCATS), 2011).
Screen size: about 310,000 compounds; about 18,000 (5.8%) were called active. The inconclusive results got no clear call from the source; some entries with a clear call stand among them for comparison. The call rests on the fitted dose curve; in most records, active means well fitted inhibition curve with a large enough effect; inconclusive means small, poorly fitted or top-dose-only effect, or another doubt; inactive means no such curve, though single readings can be large or run the other way. Potencies of inconclusive entries are left out as doubtful fits.

experiment: Primary qHTS for delayed death inhibitors of the malarial parasite plastid, 48 hour incubation; details: P. falciparum luciferase growth in erythrocytes; series mostly up to 28.7 µM; activity change, negative = inhibition: at the top concentration
In short: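 Cell-based growth assay: transgenic P. falciparum expressing firefly luciferase, cultured in red cells within RPMI 1640 containing 0.5% w/v Albumax, 24 mM bicarbonate and gentamycin. A drop in luciferase activity indicates inhibition.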
On the % scale 0 is the no-effect control and ±100 the full control effect; potency means the concentration at half of the fitted maximal effect; tags describe the fitted curve by direction and shape.

| Compound | activity change, negative = inhibition | Potency |
| --- | --- | --- |
| O=C(O)c1cc([N+](=O)[O-])ccc1C(=O)Nc1cccc([N+](=O)[O-])c1 | inactive: 8.86% | – |
| COc1cccc(N=Nc2c(N)[nH]n3c(=O)cc(-c4ccccc4)nc23)c1 | – | inconclusive [inhibitor, single point] |
| CN1CCN(CC2(O)CCN(S(=O)(=O)c3ccc(Cl)cc3)CC2)CC1 | – | inconclusive [inhibitor, single point] |
| Cc1cc(C)c(O)c(NC(=S)NC(=O)Cc2ccccc2)c1 | – | inconclusive [inhibitor, partial curve, poor fit] |
| CCOC(=O)c1c(NC(=O)Nc2ccc(F)cc2)sc2c1CCN(C)C2 | – | active: 8.28 µM |
| CCCN(CC(=O)Nc1ccccc1C)C(=O)/C=C/c1ccc(OCC)c(OC)c1 | – | active: 9.28 µM |
| CC1CCN(S(=O)(=O)CCNC(=O)c2ccccc2)CC1 | – | inconclusive [inhibitor, full curve, poor fit] |
| COc1ccc(-c2nnc(SCC(=O)Nc3nncs3)o2)cc1 | inactive: 8.61% | – |
| CCN(c1cccc(C)c1)S(=O)(=O)c1c(C)[nH]c(C)c1C(=O)N1CCCCC1 | – | inconclusive [inhibitor, single point] |
| Cc1ccc(S(=O)(=O)N2CCN(C(=O)CN3CCOCC3)C2c2ccccc2)cc1 (centres undefined) | inactive: -21.7% | – |
| COc1cccc(N=C2CC(C)(C)CC(=O)/C2=C(/O)c2ccccc2)c1 | – | inconclusive [inhibitor, single point] |
| O=C(Nc1cccc(S(=O)(=O)N2CCCCC2)c1)C1CCN(C(=O)c2ccc(Cl)cc2)CC1 | – | inconclusive [inhibitor, single point] |
| Cc1ccc(C(=O)/C=C/Nc2ccc(S(=O)(=O)Nc3cc(C)nc(C)n3)cc2)cc1 | – | inconclusive [inhibitor, single point] |
| CC(=O)c1cccc(NC(=O)C2CCN(C(=O)c3ccc([N+](=O)[O-])cc3)CC2)c1 | – | inconclusive [inhibitor, partial curve] |
| O=C1/C(=C/c2ccc(Br)cc2)Oc2cc(O)ccc21 | inactive: 40% | – |
| Fc1cccc(CNC2CCN(CCc3ccccc3)CC2)c1 | – | inconclusive [inhibitor, partial curve, poor fit] |
| CN(CC(=O)NCc1ccccc1Cl)CC(=O)Nc1ccccc1Br | – | inconclusive [inhibitor, single point] |
| Cn1c2ccccc2c(=O)c2c(=O)n(Cc3ccco3)c(-c3ccc(C(C)(C)C)cc3)nc21 | – | inconclusive [inhibitor, partial curve] |
| CCOC(=O)c1cccc(NC(=O)C2CCCN(c3nnc(N4CCCC4=O)s3)C2)c1 (centres undefined) | – | inconclusive [inhibitor, partial curve] |
| O=S(=O)(O)c1cc(OS(=O)(=O)c2ccccc2)cc2ccccc12 | inactive: 6.25% | – |
| Cc1onc(-c2ccccc2)c1C(=O)OCC(=O)Nc1ccc(OC(F)(F)F)cc1 | – | inconclusive [inhibitor, single point] |
| COc1ccc(CCC(=O)NC(C)C)cc1 | – | inconclusive [inhibitor, full curve, poor fit] |

| Compound | activity change, negative = inhibition | Potency |
| --- | --- | --- |
| O=C(NCCN1CCCC1)c1ccc2c(c1)N(Cc1cccc(Cl)c1)C(=O)c1ccccc1S2(=O)=O | – | active: 8.28 µM |
| Cc1ccc(N2C(=O)Nc3ccccc3C2(O)C(=O)N2CCN(c3ccccn3)CC2)cc1C (centres undefined) | – | inconclusive [inhibitor, full curve, poor fit] |
| CC(CN1CCCCC1)OC(=O)c1ccccc1F (centres undefined) | inactive: 24.6% | – |
| CC#CCN1c2ccccc2[C@]23C[C@@H](C(=O)OC)N(C(=O)C4CCC4)C2=NC(C(=O)OC)=C(C(=O)OC)[C@H]13 | – | inconclusive [inhibitor, single point] |
| CN(CC/C=C1/c2ccccc2CSc2ccccc21)CCCO | – | active: 11.7 µM |
| O=C(CSc1nnc(Cn2nnc(-c3ccccc3)n2)n1-c1ccccc1)Nc1ccc(F)cc1 | – | active: 9.28 µM |
| O=[N+]([O-])c1ccc2c(c1)C(N1CCOCC1)/C(=C/COc1ccc(F)cc1)O2 (centres undefined) | – | inconclusive [inhibitor, single point] |
| O=C(NC1CCCCC1)C1c2ccccc2C(=O)N1Cc1ccc2c(c1)OCO2 (centres undefined) | – | inconclusive [inhibitor, single point] |
| CN(CC(=O)NCCc1ccc(S(N)(=O)=O)cc1)Cc1c(F)cccc1Cl | inactive: -19.9% | – |
| C=Cn1cc[n+](CC(=O)c2ccc(OC)cc2)c1 | – | inconclusive [inhibitor, partial curve, poor fit] |
| CCCN(CCc1cccs1)[C@H]1CCc2c(O)cccc2C1 | – | active: 6.75 µM |
| O=C(CSc1nc2ncccc2[nH]1)Nc1ccc2c(c1)OCO2 | inactive: 10.1% | – |
| COc1cccc(C(=O)Nc2cccc3c2ccc2cccn23)c1 | – | inconclusive [inhibitor, full curve, poor fit] |
| O=C(O)c1cc(O)ccc1NC(=O)C(c1ccccc1)c1ccccc1 | inactive: -4.74% | – |
| CC(=O)c1ccc(OCC(=O)N(C2CCCCC2)C2CCS(=O)(=O)C2)cc1 (centres undefined) | inactive: -8.72% | – |
| Cc1ccc(Nc2nc(N)c([N+](=O)[O-])c(N3CCOCC3)n2)cc1C | – | inconclusive [inhibitor, single point] |
| COc1ccccc1/C=C/C(=O)OCC(=O)c1c[nH]c2ccccc12 | – | inconclusive [inhibitor, single point] |
| CC(=O)C1CCC2C3CCC4=CC(=O)CC[C@]4(C)[C@@]3(F)C(O)C[C@]12C (some centres undefined) | – | inconclusive [inhibitor, full curve, poor fit] |
| CCn1c2ccccc2c2cc(CN3CCN(S(=O)(=O)Cc4ccccc4)CC3)ccc21 | – | inconclusive [inhibitor, single point] |
| COc1ccccc1[C@@H]1C(c2cccc(C)c2)=NN(c2ccccc2)[C@H]1C(=O)N1CCOC1=O | – | active: 13.1 µM |
| CSc1ccccc1NC(=O)COc1ccccc1C | inactive: 5.57% | – |
| COc1ccc(C)cc1NC(=O)CCc1ccc(S(=O)(=O)N2CCOCC2)cc1 | – | inconclusive [inhibitor, single point] |
